The record followed here is PubChem BioAssay AID1346428 (National Center for Advancing Translational Sciences (NCATS), 2018).

Structures are written as SMILES. The whole screen tested about 48,000 compounds, of which about 1,200 (2.5%) were called active. Another 2% or so got no clear call; they are omitted.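 How the source made its calls: active means activation of at least 60% and not above a set upper limit (about 1 call in 100 departs from these limits); inconclusive means activation of 40% to 60%, or above that upper limit; inactive means activation under 40%.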 The list shows a part of the results.

UniProt O75388, sequence (O75388 whole entry, looked up, the tested form may be a part): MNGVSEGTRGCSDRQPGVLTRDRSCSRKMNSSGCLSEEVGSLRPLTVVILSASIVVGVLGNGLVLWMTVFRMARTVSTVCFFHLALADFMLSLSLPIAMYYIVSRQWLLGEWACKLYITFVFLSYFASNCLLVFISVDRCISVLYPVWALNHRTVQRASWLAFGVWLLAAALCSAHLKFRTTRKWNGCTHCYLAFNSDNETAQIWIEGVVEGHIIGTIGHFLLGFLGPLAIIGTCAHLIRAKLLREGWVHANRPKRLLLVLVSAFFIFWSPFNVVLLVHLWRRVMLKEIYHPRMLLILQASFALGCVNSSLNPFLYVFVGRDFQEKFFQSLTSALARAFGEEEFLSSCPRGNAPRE

For the assay, the target named is Probable G-protein coupled receptor 32 (Homo sapiens) (UniProt O75388). The experiment in a line: qHTS for Agonists of Human Resolvin D1 Receptor DRV1. The note with it: CHO-K1 GPR32 beta-arrestin PathHunter luminescence, 90 min; at 76.9 µM; active compounds read high; zero percent set by DMSO-only wells. The method, boiled down:
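PathHunter enzyme-fragment complementation, CHO-K1 GPR32 stable line; 2,500 cells/well, overnight attach; cpd 90 min 37 °C 5% CO2; detection reagent 1 h RT; chemiluminescence. DMSO = EC0.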
(In qHTS, concentration-response curves come from the screen itself.)
With `Clc1ccc(CCNc2nc3ccccc3c3nc(-c4ccccc4)nn23)cc1`, the activation is inactive: -3.1%.

For the compound `CCN(C(=O)CSc1nnc(-c2cc(OC)c(OC)c(OC)c2)o1)c1ccccc1`, the activation is inactive: 33.7%.

`CCOc1ccc(NC(=O)Cn2cc(C(=O)c3cccs3)c3ccccc32)cc1`: the activation was inactive: -17.5%.

Turning to `CCOc1cccc(CC(=O)NCc2ccc3c(c2)CCN3C(=O)c2ccc(F)cc2)c1OCC`, the activation is inactive: -5.64%.

`Cc1ccc(C(=O)N(Cc2ccco2)Cc2ccco2)cc1`: the activation is inactive: -8.22%.

Regarding `CCOc1cc(CNC(=O)c2ccccc2NC(=O)c2nsc3ccccc23)ccc1OC`, the activation is inactive: -16.6%.

As for `CC1(C)S[C@@H]2[C@H](NC(=O)C(C(=O)O)c3ccccc3)C(=O)N2[C@H]1C(=O)O` (stereo partly drawn), the activation is inactive: 24.4%.

On to `Cc1ccc(NC(=O)C2CCN(S(=O)(=O)c3ccc4[nH]c(=O)ccc4c3)CC2)cc1C`, for which the activation is inactive: 24.7%.

In the case of `CCc1ccc(CN(Cc2ccco2)c2cnc(S(C)(=O)=O)nc2C(=O)Nc2c(C)cccc2C)cc1`, the activation is inactive: -16.2%.

As for `CCCc1cc(N2CCN(c3ccccc3)CC2)n2cnnc2n1`, the activation is inactive: 11%.

As to `CCOc1ccc(CCNC(=O)Cn2c(-c3cccs3)cc3cc(F)ccc32)cc1OCC`, the activation is active: 112%.

As to `CCc1cccc(CC)c1NC(=O)Cn1c(=O)c(-c2cc(C)ccc2NC(C)=O)nc2ccccc21`, the activation is inactive: -6.44%.

Take `O=C1COc2cc(S(=O)(=O)CCC(=O)N3CCN(c4ccccc4F)CC3)c(Cl)cc2N1`: the activation was inactive: -11.4%.

For `Cn1c(=NC(=O)c2ccc(S(=O)(=O)N3CCCC3)cc2)sc2cc(F)ccc21`, the activation is inactive: -0.158%.

Turning to `CCc1ccccc1NCc1nnc2n1CCCCC2`, the activation was inactive: 32.1%.

Turning to `CCOc1ccccc1NC(=O)C1CCN(S(=O)(=O)c2cc(Br)cc3c2N(C(C)=O)CC3)CC1`, the activation is inactive: -4.16%.

As to `COc1cccc(CN2CCCN(CC(=O)Nc3ccc4c(c3)OCCO4)S2(=O)=O)c1`, the activation is inactive: -3.05%.

For `Cc1ccc(-c2nnc(SCC(=O)c3ccc(Cl)cc3)n2-c2ccccc2)cc1`, the activation is inactive: -15.6%.

Consider `Cc1oc(-c2ccccc2F)nc1CSCC(=O)N1CCN(c2ccccc2)CC1`, for which the activation is inactive: 4.27%.

`Cc1nc2nc(NC(=O)c3ccc(C(C)(C)C)cc3)[nH]n2c(=O)c1Cl`: the activation is inactive: 37.5%.

Regarding `COc1cccc(N(Cc2nnc3n2CCCCC3)C(=O)Nc2ccccc2)c1`, the activation is inactive: 3.86%.

In the case of `CCCCOc1ccc(C(=O)NCCc2sc(-c3ccc(OC)c(OC)c3)nc2C)cc1`, the activation was inactive: 1.89%.

With `CCOc1ccc(CNC(=O)c2ccc3c(c2)N(CC)CCS3)cc1`, the activation was inactive: -38.6%.
